Reference: the supplement of paper PMC10369915
The other results are listed elsewhere or left out. No stated cut-off is given here; in the data, active = 3.2 or more and inactive = the rest. The signal is at background level for most entries.

B1: HLA-B_Y137 (peptide)
chain: RLLRGHDQYAY
B2: HLA-B_Y137_H137Y_YF (peptide)
chain: RLLRGYDQFAF
B3: HLA-B_Y137_YF (peptide)
chain: RLLRGHDQFAF
B4: HLA-B_Y51 (peptide)
chain: FISVGYVDDTQ
B5: HLA-B_Y51_D54G (peptide)
chain: FISVGYVDGTQ
B6: HLA-B_Y83 (peptide)
chain: QEGPEYWDRNT
B7: HLA-C_Y137_D138N (peptide)
chain: RLLRGYNQSAY
B8: HLA-C_Y137_S140L (peptide)
chain: RLLRGYDQLAY
B9: HLA-C_Y137_Y137H (peptide)
chain: RLLRGHDQSAY
B10: HLA-C_Y137_Y137H_YF (peptide)
chain: RLLRGHDQSAF
B11: HLA-C_Y183_L180Q (peptide)
chain: EQQRAYLEGTC
B12: HLA-C_Y183_L180R (peptide)
chain: EQRRAYLEGTC
B13: HLA-C_Y183_T187E (peptide)
chain: EQLRAYLEGEC
B14: HLA-C_Y195_E197K (peptide)
chain: EWLRRYLKNGK
B15: HLA-C_Y195_R194G (peptide)
chain: EWLRGYLENGK
B16: HLA-C_Y31 (peptide)
chain: SHSMRYFDTAV
B17: HLA-C_Y31_D33Y (peptide)
chain: SHSMRYFYTAV
B18: HLA-C_Y31_R30K (peptide)
chain: SHSMKYFDTAV
B19: HLA-DPB1_Y57_E62Q_YF (peptide)
chain: RFLERYIFNRQ

Each binder was assayed against SHP2 C-SH2 domain E139D (assay: enrichment score (SH2-bound / input frequency) (ratio); bacterial display of known human phosphotyrosine sites (pTyr-Var adds point mutants) read by sequencing; higher = stronger binding; tyrosines were phosphorylated by kinases first). Conditions: peptide library: pTyr-Var.
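Further: displayed peptides selected on beads carrying the immobilized SH2 domain, with library peptides lacking any tyrosine serving as negative controls.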

Enrichment score, inactive:
B1 1.38
B2 1.49
B3 1.18
B4 1.27
B5 1.24
B6 0.554
B7 1.34
B8 1.48
B9 1.03
B10 1.1
B11 0.489
B12 0.674
B13 0.863
B14 0.385
B15 1.08
B16 1
B17 2.69
B18 0.903
B19 0.906

What follows are binders tested against SHP2 C-SH2 domain wild-type in the same assay as above. Conditions: peptide library: pTyr-Var.

Enrichment score, inactive:
B1 1.34
B2 1.34
B3 1.33
B4 1.2
B5 1.11
B6 0.63
B7 1.84
B8 0.992
B9 0.938
B10 1.05
B11 0.608
B12 0.742
B13 1.14
B14 0.288
B15 0.893
B16 0.881
B17 3.17
B18 0.844
B19 0.835

The binders below were run against SHP2 N-SH2 domain L43F in the same assay as above. Conditions: peptide library: pTyr-Var.

Enrichment score, inactive:
B1 1.35
B2 1.34
B3 1.32
B4 1.35
B5 1.14
B6 0.395
B7 1.47
B8 1.37
B9 1.22
B10 1.1
B11 0.702
B12 0.714
B13 0.828
B14 0.296
B15 1.09
B16 0.737
B17 2.98
B18 0.782
B19 0.943

Each binder was assayed against SHP2 N-SH2 domain T42A in the same assay as above. Conditions: peptide library: pTyr-Var.

Enrichment score, active:
B17 6.65

Enrichment score, inactive:
B1 1.06
B2 1.27
B3 1.19
B4 1.59
B5 1.12
B6 0.484
B7 1.63
B8 1.14
B9 0.817
B10 0.788
B11 0.528
B12 0.834
B13 1.16
B14 0.187
B15 1.13
B16 0.76
B18 0.823
B19 0.904

These binders were tested against SHP2 N-SH2 domain T52S in the same assay as above. Conditions: peptide library: pTyr-Var.

Enrichment score, inactive:
B1 1.37
B2 1.29
B3 1.39
B4 1.37
B5 1.17
B6 0.721
B7 1.35
B8 0.998
B9 1.08
B10 1.09
B11 0.588
B12 0.647
B13 0.873
B14 0.208
B15 1.12
B16 0.751
B17 3.12
B18 0.96
B19 0.768

Each binder was assayed against SHP2 N-SH2 domain wild-type in the same assay as above. Conditions: peptide library: pTyr-Var.

Enrichment score, inactive:
B1 1.34
B2 1.31
B3 1.39
B4 1.13
B5 1.28
B6 0.566
B7 1.92
B8 1.22
B9 1.08
B10 1.22
B11 0.651
B12 0.888
B13 1.01
B14 0.341
B15 1.05
B16 0.843
B17 2.39
B18 0.804
B19 0.858
